The values below come from patent US20240018243A1 (NOVOMAB BIOPHARMACEUTICALS, published 2024).

Numbering of substitutions follows the chain as printed. Numbers in names are those of the source.

Test [1] deals with T1, human CTLA4 on transfected 293 cells (human, UniProt P16410 36-223).
T1 construct: whole, on cells; also called human CTLA4 expressing cells; CTLA4 overexpressing cells
T1 sequence (looked up): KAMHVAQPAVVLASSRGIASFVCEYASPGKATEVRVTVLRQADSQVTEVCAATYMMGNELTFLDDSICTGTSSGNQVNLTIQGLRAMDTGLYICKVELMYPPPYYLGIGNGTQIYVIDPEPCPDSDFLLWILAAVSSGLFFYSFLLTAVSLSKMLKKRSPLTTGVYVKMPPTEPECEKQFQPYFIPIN
Nature of the test: cell ELISA on 293 cells transfected with human CTLA4.

Test [2] addresses T2, Human CTLA4-His recombinant protein (human, UniProt P16410 36-162).
T2 construct: also called CTLA4-HIS (Sino Biological); CTLA4 recombinant protein; not shown: His tag
T2 sequence (looked up): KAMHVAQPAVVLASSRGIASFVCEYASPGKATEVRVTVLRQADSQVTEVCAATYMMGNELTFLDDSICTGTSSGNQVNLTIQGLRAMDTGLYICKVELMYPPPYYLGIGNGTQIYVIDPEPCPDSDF
Nature of the test: ELISA, human CTLA4-His coated, goat anti-human IgG-HRP, OD450.

In test [3] the target is T2, Human CTLA4-His recombinant protein. The description is as above. This is another data set of the same source.
Test [4] shares this target. Kind of test: ELISA, human CTLA4-His coated, anti-human IgG-HRP.
The target is the same in test [5]. Nature of the test: OCTET (BLI), antibody on protein A biosensor, CTLA4-HIS in solution. How it is done:
The affinity constant KD of the antibody to CTLA4 was determined using OCTET. Firstly, the protein A biosensor was used to immobilize the antibody to be detected, and the biosensors containing different antibodies were placed in the CTLA4-HIS diluent with the same concentration (Sino Biological) for binding for 4 min. The biosensor was then placed in the PBS for 400 s. The affinity constant KD of the antibody was analyzed by OCTET analysis software, KD is kd/ka.

Test [6] deals with T3, monkey CTLA4 on expressing cells (monkey).
T3 construct: whole, on cells; also called monkey CTLA4 expressing cells
Kind of test: cell ELISA on monkey CTLA4 expressing cells.

B1: HCA14-F1 (Fc fusion)
chain: EVQLLESGGGLVQPGGSLRLSCAASGSIFSINHMAWYRQAPGKQRELVAGVNSRGTTNYVDSVKGRFTISRDNSKNTLYLQMNSLRAEDTAVYYCRALGGAVAAWGQGTLVTVSSGGGGSGGGGSGGGGS[human IgG1 Fc skipped]
notes: HCA14 fused to human IgG1 Fc; also called HCA14-1
The molecule B1 gave an EC50 in test [1] of 0.0367 µg/mL.

B2: HCA13 (Fc fusion)
VHH-Fc (IgG4 S228P) fusion chain: EVQLLESGGGLVQPGGSLRLSCAASGSIFSINHMAWYRQAPGKGLELVAGVNSRGTTNYVDSVKGRFTISRDNSKNTLYLQMNSLRAEDTAVYYCRALGGAVAAWGQGTLVTVSSGGGGSGGGGSGGGGS[human IgG4 Fc with S228P (EU numbers) skipped]
notes: The sheet prints only 'HCA13'; also called HCA13-F4
As to B2, the concentration for a half-maximal effect (EC50) in test [2] is 0.0627 µg/mL; in test [3], 0.0716 µg/mL.

B3: HCA12 (Fc fusion)
VHH-Fc (IgG4 S228P) fusion chain: B2 VHH-Fc (IgG4 S228P) fusion chain with R96A
notes: The sheet prints only 'HCA12'; also called HCA12-F4
On to B3, for which the EC50 in test [3] is 1.14 µg/mL.

B4: HCA11 (Fc fusion)
VHH-Fc (IgG4 S228P) fusion chain: B2 VHH-Fc (IgG4 S228P) fusion chain with S27F, I28T, R96A
notes: The sheet prints only 'HCA11'; also called HCA11-F4
For the molecule B4, the 50% effective concentration (EC50) in test [3] worked out at 0.657 µg/mL.

B5: HCA15 (Fc fusion)
VHH-Fc (IgG4 S228P) fusion chain: B2 VHH-Fc (IgG4 S228P) fusion chain with T77M, L78V
notes: The sheet prints only 'HCA15'; also called HCA15-F4
In the case of B5, the EC50 in test [2] was 0.165 µg/mL.

B6: CA1-F4 (Fc fusion)
chain: QVQLQESGGGLVQAGGSLRLSCAASGSIFSINHMAWYRQAPGKQRELVAGVNSRGTTNYVDSVKGRFTISRDNAKNMVYLLMNSLKPEDTAVYYCRALGGAVAAWGQGTQVTVSSGGGGSGGGGSGGGGS[human IgG4 Fc with S228P (EU numbers) skipped]
notes: Alpaca VHH CA1 fused to human IgG4 Fc (S228P); Cloned with a signal peptide
For B6, the results for the EC50 in test [1], in test [4] and in test [3] were 0.0426 µg/mL, 0.00677 µg/mL and 0.00435 µg/mL, respectively.

B7: HCA14-F4 (Fc fusion)
chain: B2 VHH-Fc (IgG4 S228P) fusion chain with G44Q, L45R
notes: also called bivalent antibody HCA14-F4
B7 showed an EC50 in test [1] of 0.0335 µg/mL. In addition, in test [5], the equilibrium dissociation constant (Kd) is less than 1 pM, the koff is less than 1e-07 s⁻¹ and the on-rate constant (kon) stood at 37300 M⁻¹ s⁻¹. The concentration for a half-maximal effect (EC50) in test [6] came out at 0.00857 µg/mL.
